# Data: patent US20120270251A1, “INHIBITION OF THE ACTIVITY OF KINASE AND SYNTHETASE ENZYMES” (CSIR, priority 2009, published 2012)
# Target: T1, AK1 (Homo sapiens, UniProt P00568)
# T1 sequence (P00568 1-194): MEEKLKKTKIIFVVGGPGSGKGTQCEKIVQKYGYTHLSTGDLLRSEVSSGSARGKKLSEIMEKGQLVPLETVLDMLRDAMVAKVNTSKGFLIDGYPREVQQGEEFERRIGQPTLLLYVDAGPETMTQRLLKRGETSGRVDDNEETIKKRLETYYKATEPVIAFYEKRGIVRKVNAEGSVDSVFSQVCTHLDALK
# Test: AK1 enzyme activity in presence of imidazole compounds over a pH range (ADP by HPLC)
# Conditions: 2 mM compound, range of pH values
structure (smiles),measurement,value
"Cc1nccn1C.Cl [1,2 dimethyl imidazole.HCl]",inhibition of the activity of AK1 compared with the activity in the presence of NaCl,distinctive inhibition
